# Measurements taken from the supplement of paper PMC8728848.
# The other results are listed elsewhere or left out.
# B1: Als1 (Candida albicans), P46590 (protein)
# chain: KTITGVFDSFNSLTWSNAANYAFKGPGYPTWNAVLGWSLDGTSANPGDTFTLNMPCVFKYTTSQTSVDLTADGVKYATCQFYSGEEFTTFSTLTCTVNDALKSSIKAFGTVTLPIAFNVGGTGSSTDLEDSKCFTAGTNTVTFNDGDKDISIDVEFEKSTVDPSGYLYASRVMPSLNKVTTLFVAPQCENGYTSGTMGFSSSNGDVAIDCSNIHIGITKGLNDWNYPVSSESFSYTKTCTSNGIQIKYQNVPAGYRPFIDAYISATDVNQYTLAYTNDYTCAGSRLQSKPFTLRWTGYKNSDAGSNGIVIVATTRTVTDSTTAVTTLPFNPSVDKTKTIEILQPIPTTTITTSYVGVTTSYLTKTAPIGETATVIVDVPYHTTTTVTSEWTGTITTTTTRTNPTDSIDTVVVQVP
# Tests used:
# Assay in all cases: glycan array binding signal (z-score within array); higher = stronger binding
# Conditions in all cases: glycan notation: IUPAC condensed, linker removed
# [1] = target: Fuc(a1-2)Gal(b1-4)GlcNAc(b1-3)Gal(b1-4)GlcNAc(b1-2)Man(a1-3)[Fuc(a1-2)Gal(b1-4)GlcNAc(b1-3)Gal(b1-4)GlcNAc(b1-2)Man(a1-6)]Man(b1-4)GlcNAc(b1-4)GlcNAc
# Outline: (§1)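 The Consortium for Functional Glycomics database supplied 3228 glycan arrays, of which those lacking an available protein sequence were dropped. The binding signal, a within-array Z-score, was averaged across arrays of the same protein sequence and across linkers. Negative scores can be read as non-binding.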
# [2] = target: Fuc(a1-2)Gal(b1-4)GlcNAc(b1-3)Gal(b1-4)GlcNAc(b1-3)Gal(b1-4)GlcNAc
# Outline: as §1
# [3] = target: Fuc(a1-2)Gal(b1-4)GlcNAc(b1-3)GalNAc
# Outline: as §1
# [4] = target: Fuc(a1-2)Gal(b1-4)GlcNAc(b1-3)[Fuc(a1-2)Gal(b1-4)GlcNAc(b1-6)]GalNAc
# Outline: as §1
# [5] = target: Fuc(a1-2)Gal(b1-4)GlcNAc(b1-3)[Fuc(a1-3)[Gal(b1-4)]GlcNAc(b1-6)]Gal(b1-4)Glc
# Outline: as §1
# [6] = target: Fuc(a1-2)Gal(b1-4)GlcNAc(b1-6)GalNAc
# Outline: as §1
# [7] = target: Fuc(a1-2)Gal(b1-4)GlcNAc6S
# Outline: as §1
# [8] = target: Fuc(a1-2)Gal(b1-4)[Fuc(a1-3)]GlcNAc
# Outline: as §1
# [9] = target: Fuc(a1-2)Gal(b1-4)[Fuc(a1-3)]GlcNAc(b1-2)Man(a1-3)[Fuc(a1-2)Gal(b1-4)[Fuc(a1-3)]GlcNAc(b1-2)Man(a1-6)]Man(b1-4)GlcNAc(b1-4)[Fuc(a1-6)]GlcNAc
# Outline: as §1
# [10] = target: Fuc(a1-2)Gal(b1-4)[Fuc(a1-3)]GlcNAc(b1-2)[Fuc(a1-2)Gal(b1-4)[Fuc(a1-3)]GlcNAc(b1-4)]Man(a1-3)[Fuc(a1-2)Gal(b1-4)[Fuc(a1-3)]GlcNAc(b1-2)Man(a1-6)]Man(b1-4)GlcNAc(b1-4)GlcNAc
# Outline: as §1
# [11] = target: Fuc(a1-2)Gal(b1-4)[Fuc(a1-3)]GlcNAc(b1-3)Gal(b1-4)[Fuc(a1-3)]GlcNAc
# Outline: as §1
# [12] = target: Fuc(a1-2)Gal(b1-4)[Fuc(a1-3)]GlcNAc(b1-3)Gal(b1-4)[Fuc(a1-3)]GlcNAc(b1-3)Gal(b1-4)[Fuc(a1-3)]GlcNAc
# Outline: as §1
# [13] = target: Fuc(a1-2)Gal(b1-4)[Fuc(a1-3)]GlcNAc(b1-3)GalNAc
# Outline: as §1
# [14] = target: Fuc(a1-2)Gal(b1-4)[Fuc(a1-3)]GlcNAc(b1-3)[Neu5Ac(a2-6)Gal(b1-4)GlcNAc(b1-6)]Gal(b1-4)Glc
# Outline: as §1
# [15] = target: Fuc(a1-2)Gal3S(b1-4)GlcNAc
# Outline: as §1
# [16] = target: Fuc(a1-2)Gal6S(b1-3)GlcNAc
# Outline: as §1
# [17] = target: Fuc(a1-2)Gal6S(b1-3)GlcNAc6S
# Outline: as §1
# Fuc(a1-2)Gal6S(b1-4)Glc = target: Fuc(a1-2)Gal6S(b1-4)Glc
# Outline: as §1
# [18] = target: Fuc(a1-2)Gal6S(b1-4)Glc6S
# Outline: as §1
# Fuc(a1-2)[Gal(a1-3)]Gal = target: Fuc(a1-2)[Gal(a1-3)]Gal
# Outline: as §1
# [19] = target: Fuc(a1-2)[Gal(a1-3)]Gal(b1-3)GalNAc
# Outline: as §1
# [20] = target: Fuc(a1-2)[Gal(a1-3)]Gal(b1-3)GalNAc(b1-3)Gal(a1-4)Gal(b1-4)Glc
# Outline: as §1
# [21] = target: Fuc(a1-2)[Gal(a1-3)]Gal(b1-3)GlcNAc
# Outline: as §1
# [22] = target: Fuc(a1-2)[Gal(a1-3)]Gal(b1-3)GlcNAc(b1-2)Man(a1-3)[Fuc(a1-2)[Gal(a1-3)]Gal(b1-3)GlcNAc(b1-2)Man(a1-6)]Man(b1-4)GlcNAc(b1-4)GlcNAc
# Outline: as §1
# [23] = target: Fuc(a1-2)[Gal(a1-3)]Gal(b1-3)GlcNAc(b1-2)Man(a1-3)[Fuc(a1-2)[Gal(a1-3)]Gal(b1-3)GlcNAc(b1-2)Man(a1-6)]Man(b1-4)GlcNAc(b1-4)[Fuc(a1-6)]GlcNAc
# Outline: as §1
# [24] = target: Fuc(a1-2)[Gal(a1-3)]Gal(b1-3)GlcNAc(b1-3)GalNAc
# Outline: as §1
# [25] = target: Fuc(a1-2)[Gal(a1-3)]Gal(b1-3)GlcNAc(b1-6)GalNAc
# Outline: as §1
# [26] = target: Fuc(a1-2)[Gal(a1-3)]Gal(b1-4)Glc
# Outline: as §1
# [27] = target: Fuc(a1-2)[Gal(a1-3)]Gal(b1-4)GlcNAc
# Outline: as §1
# [28] = target: Fuc(a1-2)[Gal(a1-3)]Gal(b1-4)GlcNAc(b1-2)Man
# Outline: as §1
binder,measurement,setting,value
B1,glycan array binding signal (z-score),[1],-0.087
same,glycan array binding signal (z-score),[2],-0.553
same,glycan array binding signal (z-score),[3],0.399
same,glycan array binding signal (z-score),[4],-0.707
same,glycan array binding signal (z-score),[5],-0.792
same,glycan array binding signal (z-score),[6],-0.316
same,glycan array binding signal (z-score),[7],0.114
same,glycan array binding signal (z-score),[8],-0.336
same,glycan array binding signal (z-score),[9],-0.424
same,glycan array binding signal (z-score),[10],0.506
same,glycan array binding signal (z-score),[11],-0.88
same,glycan array binding signal (z-score),[12],-0.613
same,glycan array binding signal (z-score),[13],1.77
same,glycan array binding signal (z-score),[14],-0.354
same,glycan array binding signal (z-score),[15],-0.065
same,glycan array binding signal (z-score),[16],-0.676
same,glycan array binding signal (z-score),[17],0.403
same,glycan array binding signal (z-score),Fuc(a1-2)Gal6S(b1-4)Glc,-0.435
same,glycan array binding signal (z-score),[18],-0.25
same,glycan array binding signal (z-score),Fuc(a1-2)[Gal(a1-3)]Gal,-0.327
same,glycan array binding signal (z-score),[19],-0.53
same,glycan array binding signal (z-score),[20],-0.049
same,glycan array binding signal (z-score),[21],-0.125
same,glycan array binding signal (z-score),[22],-0.844
same,glycan array binding signal (z-score),[23],-0.335
same,glycan array binding signal (z-score),[24],-0.482
same,glycan array binding signal (z-score),[25],-0.3
same,glycan array binding signal (z-score),[26],-0.48
same,glycan array binding signal (z-score),[27],-0.644
same,glycan array binding signal (z-score),[28],-0.385
